# Source: the supplement of paper PMC8728848
# The other results are listed elsewhere or left out.
# B1: CML1 (Coprinopsis cinerea) (protein)
# chain: MAIFHTGSELFIITRGPGKLTLLTWGGLNNLRSVIGAIPTENTGVTKWAVSFSHNYTRFSFIWEGQGEACYQIGNGLTRSPVGRSWSSSSTIHWGSSTVITEDVTSVVPGAVNRDKVTTAYALPDNL
# Columns and labels:
# Assay in all cases: glycan array binding signal (z-score within array); higher = stronger binding
# Conditions in all cases: glycan notation: IUPAC condensed, linker removed
# [1] = molecular target: Gal(b1-4)GlcNAc(b1-3)Gal(b1-4)GlcNAc(b1-3)Gal(b1-4)GlcNAc(b1-3)Gal(b1-4)GlcNAc(b1-2)Man(a1-3)[Gal(b1-4)GlcNAc(b1-3)Gal(b1-4)GlcNAc(b1-3)Gal(b1-4)GlcNAc(b1-3)Gal(b1-4)GlcNAc(b1-2)Man(a1-6)]Man(b1-4)GlcNAc(b1-4)GlcNAc
# Method in brief: (§1)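 Columns mapping to the same glycan were averaged after glycan names were converted to IUPAC-condensed notation. The data come from 3228 arrays in the Consortium for Functional Glycomics database, limited to those with an available protein sequence. Binding is reported as a within-array Z-score averaged across arrays of one protein sequence and across linkers.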
# [2] = molecular target: Gal(b1-4)GlcNAc(b1-3)Gal(b1-4)GlcNAc(b1-3)Gal(b1-4)GlcNAc(b1-3)Gal(b1-4)GlcNAc(b1-2)Man(a1-3)[Gal(b1-4)GlcNAc(b1-3)Gal(b1-4)GlcNAc(b1-3)Gal(b1-4)GlcNAc(b1-3)Gal(b1-4)GlcNAc(b1-2)Man(a1-6)]Man(b1-4)GlcNAc(b1-4)[Fuc(a1-6)]GlcNAc
# Method in brief: as §1
# [3] = molecular target: Gal(b1-4)GlcNAc(b1-3)Gal(b1-4)GlcNAc(b1-3)Gal(b1-4)GlcNAc(b1-3)Gal(b1-4)GlcNAc(b1-2)[Gal(b1-4)GlcNAc(b1-3)Gal(b1-4)GlcNAc(b1-3)Gal(b1-4)GlcNAc(b1-3)Gal(b1-4)GlcNAc(b1-6)]Man(a1-6)[Gal(b1-4)GlcNAc(b1-3)Gal(b1-4)GlcNAc(b1-3)Gal(b1-4)GlcNAc(b1-3)Gal(b1-4)GlcNAc(b1-2)Man(a1-3)]Man(b1-4)GlcNAc(b1-4)[Fuc(a1-6)]GlcNAc
# Method in brief: as §1
# [4] = molecular target: Gal(b1-4)GlcNAc(b1-3)Gal(b1-4)GlcNAc(b1-3)Gal(b1-4)GlcNAc(b1-3)Gal(b1-4)GlcNAc(b1-3)Gal(b1-4)GlcNAc(b1-2)Man(a1-3)[Gal(b1-4)GlcNAc(b1-3)Gal(b1-4)GlcNAc(b1-3)Gal(b1-4)GlcNAc(b1-3)Gal(b1-4)GlcNAc(b1-3)Gal(b1-4)GlcNAc(b1-2)Man(a1-6)]Man(b1-4)GlcNAc(b1-4)GlcNAc
# Method in brief: as §1
# [5] = molecular target: Gal(b1-4)GlcNAc(b1-3)Gal(b1-4)GlcNAc(b1-3)Gal(b1-4)GlcNAc(b1-3)Gal(b1-4)GlcNAc(b1-3)Gal(b1-4)GlcNAc(b1-2)Man(a1-3)[Gal(b1-4)GlcNAc(b1-3)Gal(b1-4)GlcNAc(b1-3)Gal(b1-4)GlcNAc(b1-3)Gal(b1-4)GlcNAc(b1-3)Gal(b1-4)GlcNAc(b1-2)Man(a1-6)]Man(b1-4)GlcNAc(b1-4)[Fuc(a1-6)]GlcNAc
# Method in brief: as §1
# [6] = molecular target: Gal(b1-4)GlcNAc(b1-3)Gal(b1-4)GlcNAc(b1-3)Gal(b1-4)GlcNAc(b1-3)Gal(b1-4)GlcNAc(b1-3)Gal(b1-4)GlcNAc(b1-2)[Gal(b1-4)GlcNAc(b1-3)Gal(b1-4)GlcNAc(b1-3)Gal(b1-4)GlcNAc(b1-3)Gal(b1-4)GlcNAc(b1-3)Gal(b1-4)GlcNAc(b1-6)]Man(a1-6)[Gal(b1-4)GlcNAc(b1-3)Gal(b1-4)GlcNAc(b1-3)Gal(b1-4)GlcNAc(b1-3)Gal(b1-4)GlcNAc(b1-3)Gal(b1-4)GlcNAc(b1-2)Man(a1-3)]Man(b1-4)GlcNAc(b1-4)[Fuc(a1-6)]GlcNAc
# Method in brief: as §1
# [7] = molecular target: Gal(b1-4)GlcNAc(b1-3)Gal(b1-4)GlcNAc(b1-3)Gal(b1-4)GlcNAc(b1-3)Gal(b1-4)GlcNAc(b1-3)Gal(b1-4)GlcNAc(b1-3)Gal(b1-4)GlcNAc(b1-2)Man(a1-3)[Gal(b1-4)GlcNAc(b1-3)Gal(b1-4)GlcNAc(b1-3)Gal(b1-4)GlcNAc(b1-3)Gal(b1-4)GlcNAc(b1-3)Gal(b1-4)GlcNAc(b1-3)Gal(b1-4)GlcNAc(b1-2)Man(a1-6)]Man(b1-4)GlcNAc(b1-4)GlcNAc
# Method in brief: as §1
# [8] = molecular target: Gal(b1-4)GlcNAc(b1-3)Gal(b1-4)GlcNAc(b1-3)GalNAc
# Method in brief: as §1
# [9] = molecular target: Gal(b1-4)GlcNAc(b1-3)Gal(b1-4)GlcNAc(b1-3)[Gal(b1-4)GlcNAc(b1-3)Gal(b1-4)GlcNAc(b1-6)]GalNAc
# Method in brief: as §1
# [10] = molecular target: Gal(b1-4)GlcNAc(b1-3)Gal(b1-4)GlcNAc(b1-6)[Gal(b1-3)]GalNAc
# Method in brief: as §1
# [11] = molecular target: Gal(b1-4)GlcNAc(b1-3)Gal(b1-4)[Fuc(a1-3)]GlcNAc(b1-3)Gal(b1-4)[Fuc(a1-3)]GlcNAc
# Method in brief: as §1
# [12] = molecular target: Gal(b1-4)GlcNAc(b1-3)GalNAc
# Method in brief: as §1
# [13] = molecular target: Gal(b1-4)GlcNAc(b1-3)[Fuc(a1-3)GlcNAc(b1-6)]Gal(b1-4)Glc
# Method in brief: as §1
# [14] = molecular target: Gal(b1-4)GlcNAc(b1-3)[Gal(b1-4)GlcNAc(b1-6)]Gal(b1-4)GlcNAc
# Method in brief: as §1
# [15] = molecular target: Gal(b1-4)GlcNAc(b1-3)[GlcNAc(b1-6)]Gal(b1-4)GlcNAc
# Method in brief: as §1
# [16] = molecular target: Gal(b1-4)GlcNAc(b1-6)Gal(b1-4)GlcNAc
# Method in brief: as §1
# [17] = molecular target: Gal(b1-4)GlcNAc(b1-6)GalNAc
# Method in brief: as §1
# [18] = molecular target: Gal(b1-4)GlcNAc(b1-6)[Gal(b1-3)]GalNAc
# Method in brief: as §1
# [19] = molecular target: Gal(b1-4)GlcNAc(b1-6)[Gal(b1-4)GlcNAc(b1-3)]GalNAc
# Method in brief: as §1
# Gal(b1-4)GlcNAc6P = molecular target: Gal(b1-4)GlcNAc6P
# Method in brief: as §1
# Gal(b1-6)Gal = molecular target: Gal(b1-6)Gal
# Method in brief: as §1
# Gal3S(b1-3)GalNAc = molecular target: Gal3S(b1-3)GalNAc
# Method in brief: as §1
# Gal3S(b1-3)GlcNAc = molecular target: Gal3S(b1-3)GlcNAc
# Method in brief: as §1
binder,measurement,setting,value
B1,glycan array binding signal (z-score),[1],-0.304
same,glycan array binding signal (z-score),[2],-0.28
same,glycan array binding signal (z-score),[3],-0.289
same,glycan array binding signal (z-score),[4],-0.297
same,glycan array binding signal (z-score),[5],-0.302
same,glycan array binding signal (z-score),[6],-0.257
same,glycan array binding signal (z-score),[7],-0.303
same,glycan array binding signal (z-score),[8],-0.32
same,glycan array binding signal (z-score),[9],-0.323
same,glycan array binding signal (z-score),[10],-0.343
same,glycan array binding signal (z-score),[11],0.275
same,glycan array binding signal (z-score),[12],-0.334
same,glycan array binding signal (z-score),[13],-0.262
same,glycan array binding signal (z-score),[14],-0.328
same,glycan array binding signal (z-score),[15],-0.361
same,glycan array binding signal (z-score),[16],-0.341
same,glycan array binding signal (z-score),[17],-0.323
same,glycan array binding signal (z-score),[18],-0.352
same,glycan array binding signal (z-score),[19],-0.336
same,glycan array binding signal (z-score),Gal(b1-4)GlcNAc6P,-0.341
same,glycan array binding signal (z-score),Gal(b1-6)Gal,-0.342
same,glycan array binding signal (z-score),Gal3S(b1-3)GalNAc,-0.335
same,glycan array binding signal (z-score),Gal3S(b1-3)GlcNAc,-0.34
